Measurements: the supplement of paper PMC3334620
Over roughly 33,000 sequences, “E-score (-0.5 to 0.5)” has its median near -0.011; the highest 2% begin near 0.28. The list shows a part of the results.

biological target: T1, Gcr1 (UniProt P07261); assay: PBM E-score (8-mer binding enrichment) (E-score (-0.5 to 0.5)); higher = stronger / more preferred TF binding; most listed sequences are background and not binding sites; details: protein concentration: 100 nM; construct: GST-full length
T1 sequence: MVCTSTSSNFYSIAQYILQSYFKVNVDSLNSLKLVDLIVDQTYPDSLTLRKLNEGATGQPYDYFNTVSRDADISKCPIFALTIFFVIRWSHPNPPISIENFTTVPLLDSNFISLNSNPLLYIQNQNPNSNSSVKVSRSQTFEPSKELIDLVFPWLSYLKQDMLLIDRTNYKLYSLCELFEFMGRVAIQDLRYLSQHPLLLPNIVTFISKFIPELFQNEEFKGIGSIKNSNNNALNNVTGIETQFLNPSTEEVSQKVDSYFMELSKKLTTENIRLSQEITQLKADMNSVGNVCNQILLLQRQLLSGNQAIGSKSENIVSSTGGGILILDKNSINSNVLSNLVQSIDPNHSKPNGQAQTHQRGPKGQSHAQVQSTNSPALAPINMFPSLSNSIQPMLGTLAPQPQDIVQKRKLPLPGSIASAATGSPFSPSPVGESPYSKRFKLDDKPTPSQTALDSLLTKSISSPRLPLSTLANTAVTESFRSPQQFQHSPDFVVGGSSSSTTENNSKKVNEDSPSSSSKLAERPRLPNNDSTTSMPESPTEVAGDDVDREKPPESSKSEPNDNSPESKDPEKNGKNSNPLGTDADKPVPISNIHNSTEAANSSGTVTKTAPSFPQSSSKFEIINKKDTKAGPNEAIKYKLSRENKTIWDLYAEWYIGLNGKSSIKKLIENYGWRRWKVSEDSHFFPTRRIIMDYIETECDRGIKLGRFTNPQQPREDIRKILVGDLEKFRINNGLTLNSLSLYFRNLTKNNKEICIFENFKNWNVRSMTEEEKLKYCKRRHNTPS
How it was run: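 Universal all-10-mer Agilent arrays, double-stranded by primer extension on fresh or once-stripped slides, were probed with about 100-200 nM GST-tagged yeast transcription factors made by PURExpress. Fluorescent anti-GST detected bound protein, and masliner normalised the scans. E-scores from the Universal PBM Analysis Suite were given to each ungapped eight-base word pooled with its reverse complement.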

Sequence	PBM E-score
AAGAGCAC	-0.162
CCACGCGA	-0.133
GAGCCATA	-0.0931
AAACCATA	-0.102
GATAGTGA	0.0305
CCAAGGGG	-0.116
CTCGCTAC	-0.12
GAGCTAGC	-0.122
AAGATGAG	-0.0648
AGAAGCGA	0.0254
CAATCAGA	0.0413
CACACTGG	0.0866
ACAGTCAG	-0.119
ACAATTAA	0.0269
CACCAACC	0.0464
CGTGTCGC	-0.21
GGCCCTCA	-0.156
AGCCCTGG	-0.154
GCCACTAC	0.305
ACACATTA	0.0504
ACGCATAA	0.126
AGGGGGTA	-0.298

Sequence	PBM E-score
AGCTGGCA	0.0163
CCTTGCGA	-0.079
AAACTGGC	0.0254
ATCAGAAC	0.0381
GCAACGGC	0.103
ATACGGGG	0.101
CTTTCGAC	-0.159
AGTCGGAG	-0.0325
GGCACGTA	-0.05
ACTTTCAC	0.0906
CAACCGTC	-0.0544
AACACACT	-0.224
CCTAGCGC	-0.241
AGTGCATG	-0.0492
ATATCGCC	-0.0646
GCCTTCAA	-0.132
TAGCCAAA	0.0476
ATATTGCA	0.0981
CTCTAGTC	-0.254
TGACCCAA	-0.0898
ATTATACC	0.161
GTTTGATA	0.217

Sequence	PBM E-score
CGCAATTA	-0.00265
AAAGTACG	0.109
GTCATACA	-0.0119
AATAGTAG	0.134
ACAAAGCT	0.0432
GTCGGCTA	-0.0337
GGATCGTA	0.0973
CCATTGAA	0.0432
CTATCAGC	-0.02
ACACTCCA	-0.0825
GGATCTAA	0.136
CGCTTACG	-0.116
ATTACGTG	-0.0622
GAGGGATA	-0.201
CTAACCCC	-0.149
AGACGGCG	0.0416
CTCATGAC	-0.175
AACTAGCG	-0.046
AATCTGTG	-0.0578
AGGCGTGG	-0.0766
AACCAGTC	-0.0791
CCAAGCAG	0.125

Sequence	PBM E-score
CTTGACTA	-0.323
AGCTGGAA	0.226
CCGAAACA	0.162
ACACGTCA	-0.2
ATTCCTCA	0.144
ATAGATAG	-0.199
ACGCACAT	-0.0534
TACGGGCA	0.166
CTCGCGAC	-0.171
CCAAGACA	-0.0148
AGTATCAT	-0.118
AGTCTTTA	-0.275
GAAGACGA	0.198
ACGTTGCA	-0.015
ATTCGAAT	0.0645
ATGCCGAA	0.109
CCACCCTC	-0.00165
CCCAGGAA	0.158
CTTGGCTA	-0.0897
AACCTGTA	0.211
AGTGGACG	0.315
ACTATTTG	0.0391

Sequence	PBM E-score
GACCCCGC	-0.143
AACCACAA	0.213
GCGCCTTA	0.0139
AGGTACAA	-0.0348
CGAAGCCA	0.272
ATTCCGAC	0.0519
CGACAGAC	-0.0432
CGGAGGCA	0.0696
AAATCTCT	0.153
GTAACTAC	0.0084
AACTAGGT	0.15
CCTGGACG	0.0441
ACGCAATC	0.0168
ACGTTCCA	-0.00347
AATGACTG	-0.00859
AACTGAGG	-0.00704
GGTGAACA	-0.0564
AGCAATTA	0.0255
ACCAGATA	0.0838
AGACTAAT	0.0195
TAGAGTGA	0.0444
CATGTAAC	0.0723
